Data as given in ChEMBL document CHEMBL4888484, “Replenishing the malaria drug discovery pipeline: Screening and hit evaluation of the MMV Hit Generation Library 1 (HGL1) against asexual blood stage Plasmodium falciparum ,using a nano luciferase reporter read-out” (2022).
Among all 150,000 compounds or so, about 540 (0.36%) showed an effect of 50% or more. The list shows a part of the results.

The compounds below were run on Plasmodium falciparum (assay: Primary screen in NF54 nanoGlo assay, in single point, at 2uM, 72h; a lower Z score goes with more inhibition). Settings: timepoint 72 hour.
Assay type: functional, Erythrocyte

Compound	% Inhibition [%]	Z score
CCn1cnc2c(N3CC(CN4CCOCC4)C3)ncnc21	-15	2.17
CCCN1C(=O)N(c2cc(C)ccn2)C(=O)[C@@H]1CC	-8	0.74
O=C(Cc1c[nH]c2ccccc12)NC1(C(=O)O)CCCC1	-8	1.19
O=C1O[C@H]2CN(c3ncccc3C(F)(F)F)C[C@H]2N1CCN1CCCCC1	-6	0.73
CCc1nccn1CCC(=O)N1C[C@@H]2NC(=O)CN(C3CC3)Cc3cccc(c3)Oc3cccc(c3)CO[C@H]2C1	-6	1.23
CC(C)(CNC(=O)[C@@H]1CCCN1Cc1ccccn1)C1CCOCC1	-4	0.41
COc1ccc(-c2nnc(-c3cccnc3)[nH]2)cc1	-3	0.3
CCC(=O)Nc1c(C)noc1/C=C\c1ccc(S(=O)(=O)NCCC(C)C)cc1	-11	1.48
Cc1ccc(N)c(C(=O)OCc2nnnn2-c2c(C)cccc2C)c1	-5	0.54
Cc1cc(C(=O)Nc2ccc3c(c2F)CCNC3=O)on1	-7	0.7
COc1cccc(CN2CC3(CCN(C(=O)N4CCOCC4)CC3)CC2=O)c1	1	-0.13
Cc1[nH]c2c(CN3CCC(c4ncon4)CC3)cccc2c1C	-7	1.16
CC1CCCCN1C(=O)c1ccc(NC(=O)C2CC2c2ccco2)cc1Cl (stereo not drawn)	-15	2.14
COc1ccc(NC(=O)c2ccc3nn(CC(=O)Nc4cccc(C)c4C)c(=O)n3c2)cc1	-20	3.21
CN(C[C@H]1CCOC1)C(=O)NCCOCc1ccccc1	-4	0.59
NC(=O)CN1CCc2c1cccc2C(F)(F)F	-7	0.99
Cc1cccc(-n2nc3c(c2NC(=O)[C@H]2CC(=O)N(c4ccccc4)C2)CS(=O)(=O)C3)c1	-14	2.74
COCC(C)C(=O)NCC1CN(S(=O)(=O)c2ccccc2)C2CCN1C2 (stereo not drawn)	-5	0.97
CC1(C)CCN(C(=O)c2nc3cccnc3s2)c2ccccc21	-8	0.85
Cc1nc(O)nc(C)c1CCC(=O)NC(c1ccccn1)[C@H]1C[C@H](O)C1 (stereo partly drawn)	-14	1.27
CC[C@H](NCC1CCN(C(C)=O)CC1)c1ccccc1F	5	-0.62
CCc1cc(C(=O)N[C@@H]2COCC[C@@H]2OCc2c(C)noc2C)no1	-4	0.86
Cc1ccc(O[C@H]2CCN(C(=O)CCn3cnc4ccccc4c3=O)C2)nn1	-9	1.02
CCN1C(=O)C2(CCN(Cc3ccccc3Cl)CC2)C[C@H]1C(=O)NC1CCCC1	1	-0.09
COCC(=O)N(Cc1cccc(F)c1)c1ccc(CC(=O)NCc2ccccn2)cc1	-19	1.81
O=C(NCC[C@H](O)c1cccc(Cl)c1)C1CCCC1	-9	1.79
COc1nc(NCC2CCN(CC(C)C)CC2)ncc1F	-2	0.24

Compound	% Inhibition [%]	Z score
Cn1c(N)c(NC(=O)c2cccs2)c(=O)[nH]c1=O	14	-1.78
CC(C)c1cnc(-c2ccc(NC(=O)NCc3ccon3)cc2)o1	24	-2.72
CCN1CCC(CC(=O)N2CC[C@](c3nnnn3C3CCCC3)(N(CC)CC)C2)CC1	-8	1.08
O=C(O)[C@@H]1CC2(CCNCC2)CN1C(=O)c1cccc(Oc2ccccc2)c1	-12	1.14
CCN[C@H](c1cccnc1)c1csc2ccccc12	-6	0.88
O[C@H]1CN(Cc2cccc3ccccc23)CC[C@@H]1N1CCCCCC1	-8	1.05
CC(=O)Nc1cc(NCC(C)(C)S(C)(=O)=O)ccc1Cl	-8	0.72
Cc1cc(CN2CCC[C@H](c3c[nH]c4ncccc34)C2)c(C)nn1	2	-0.28
Cc1nc(NCCc2noc(CO)n2)cc([C@H]2C[C@@H](O)C2)n1	9	-1
CC/C=C(\C)CN1CC[C@H](CNC(=O)C(C)(C)C)C1	-20	2.78
CCCN(C[C@H]1CCCO1)C(=O)c1cc(C)[nH]c(=O)c1	2	-0.33
CCS(=O)(=O)c1ccc(S(=O)(=O)N2CCCc3n[nH]cc32)cc1	-12	1.09
COc1cccc(O)c1-c1nc2c(C)c(C)c(C)c(C)c2[nH]1	-1	0.27
O=C(N[C@H]1CCc2nnc(C3CC3)n2CC1)c1cnco1	-7	1.07
NC(=O)c1ccc(NC(=O)c2ncccn2)cc1	-8	1.46
CCC1CCC(C)N1C(=O)NCc1nnc2n1CCC2 (stereo not drawn)	38	-3.79
O=c1c(NCCc2ccc(Cl)cc2)nccn1Cc1ccc(F)cc1	9	-1.02
COCCN(CCS(=O)(=O)c1ccccc1)CC(=O)N(C)C	-2	0.2
Cc1ncc([C@H](C)Nc2cccc(OCCF)c2)s1	1	-0.07
CC(C)Cc1nc(-c2ccccc2)oc1CC(=O)NCc1cccc(Cl)c1	2	-0.41
COCCNC(=O)[C@H]1CCCN(C2CCN(c3ccc4ccccc4n3)CC2)C1	-17	1.61
CCn1c(=O)c(C(=O)NCc2ccc(C)o2)nc2cccnc21	-3	0.31
CCN(Cc1nc(-c2cccs2)no1)C(=O)CCc1ccccc1Cl	31	-3.47
CCN(CC(C)C)C(=O)NCc1cn(C(C)(C)C)c(=O)[nH]c1=O	-13	2.6
Cc1noc(CN(C)Cc2ccc(N3CCOCC3)cc2)n1	-14	1.88
COc1cccc(NC(=O)c2c([O-])n(-c3cccc(OC)c3)n[n+]2Cc2ccccc2)c1	-32	3.76
O=C(NCC1CCCCC1)c1ccc(S(=O)(=O)Nc2ccncc2)cc1	-2	0.23
